# Test results reported in the supplement of paper PMC3334620.
# In all, about 33,000 sequences were measured (“E-score (-0.5 to 0.5)”: median about -0.01, highest 2% from about 0.26 on). Some of the results follow.
# Target: Ste12 (UniProt P13574)
# Assay: PBM E-score (8-mer binding enrichment) (E-score (-0.5 to 0.5)); higher = stronger / more preferred TF binding; most listed sequences are background and not binding sites
# Conditions: protein concentration: 200 nM; construct: GST-DNA-binding domain
# Outline: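 Full-length yeast transcription factors or their DNA-binding domains, GST-tagged and expressed with PURExpress, were applied at about 100-200 nM to universal all-10-mer Agilent arrays. These arrays had been made double-stranded by primer extension on fresh or once-stripped slides. Detection used fluorescent anti-GST, normalisation used masliner, and E-scores for ungapped eight-base words pooled with reverse complements came from the Universal PBM Analysis Suite.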
row,Sequence,PBM E-score
1,TAGCTATA,-0.037
2,GTTCCCGA,-0.024
3,GCCCTAAC,0.108
4,AAGGACTG,-0.0196
5,CTGATGCC,-0.189
6,CTTTCTCC,-0.142
7,CTAATCAC,-0.0504
8,ACTACATA,0.0675
9,GTCTCTAA,-0.0592
10,CCAAAGCC,-0.00501
11,CCGTCTAG,-0.238
12,ACACAGTC,-0.0563
13,AACCGCAA,0.0724
14,ATTGGACC,-0.111
15,ATTTGTCC,0.147
16,ATCAAGAG,0.0164
17,CAGCACCC,-0.201
18,GCTGGCAC,-0.231
19,ATGGAATC,0.0886
20,CTCACCAA,0.284
21,ACGTGCGA,-0.0195
22,AACCTCAT,0.0341
23,GCAACAGA,0.105
24,GGCTATAA,0.0888
25,AGATAGAT,-0.0472

row,Sequence,PBM E-score
1,ATCCTTAG,-0.167
2,ATCTCACG,-0.0754
3,ATCCCGCC,0.237
4,ACCACAGG,-0.19
5,ACCCGGAT,0.0819
6,CGGACCAG,-0.0842
7,ACACGGCG,0.0175
8,CAAAGCGC,-0.0374
9,CGCAATTC,0.0196
10,ACGCGTAA,-0.0603
11,AGGCTCAA,-0.306
12,ATGAATGG,0.33
13,GCATGCTA,-0.288
14,ACGACCCA,-0.00894
15,CGGCCACA,-0.122
16,GAACTTTA,-0.0478
17,CGGGCCTA,-0.107
18,GACGAGCC,-0.159
19,ATGTATAC,0.0553
20,CATTGATC,-0.0551
21,CATTTTCC,0.123
22,GGCACGCC,-0.313
23,CAAAAGGC,-0.0119
24,TTAAACAA,0.123
25,CATCCGGG,-0.0272

row,Sequence,PBM E-score
1,AATGAACA,0.0143
2,GTATACGA,0.122
3,GAATAGGA,0.126
4,ATCATCAT,0.0555
5,ACAGATAT,0.046
6,AAACTAAG,0.177
7,ACGTTTCG,0.297
8,CATCAAAA,0.221
9,GCCCGCAA,-0.12
10,AAAGGACT,-0.0451
11,GTTCGCCA,-0.119
12,ACACGCCA,0.00553
13,ACTCCCGC,-0.0261
14,ATGTAAAC,0.0539
15,CGGATCTA,0.0937
16,CTCTTACA,0.0491
17,CGGAGCAA,0.0115
18,TAGAGCGA,-0.0958
19,CCCCGACC,0.00951
20,CGGCAACA,0.219
21,AATAATGC,0.0962
22,CGTCACCA,-0.113
23,AAACCTGC,0.1
24,TACGCCTA,-0.192
25,AGAGTTTG,0.194

row,Sequence,PBM E-score
1,GGGTGTCA,0.0537
2,AGCTGTCC,-0.106
3,TACGAAAA,0.0919
4,ACTAAAAC,0.272
5,ACATGGCG,-0.274
6,ATAGGTAG,-0.131
7,AAGTTAAA,0.167
8,CCGCGACG,-0.0308
9,CTTCTGAA,0.256
10,ACGGGCTA,-0.245
11,GCTTGCAA,0.112
12,TAATCTCA,0.0346
13,AATTCTAC,0.0281
14,ACGATAAG,0.12
15,CCAGGGCC,-0.364
16,GGAATGGA,0.0113
17,AGACCGAG,-0.0414
18,GCGAATAA,0.0377
19,AAGTCCAG,-0.0966
20,AAAAAGAG,0.00475
21,CGGGACGA,0.0863
22,ACTTAAGC,-0.122
23,CTGAGAAC,0.0658
24,CAAATGTC,-0.0033
25,TCATTTCA,0.242

row,Sequence,PBM E-score
1,ATTGGCGC,-0.0374
2,CTGGGAAG,-0.113
3,AAAGGGCC,-0.136
4,CACTCGAC,-0.0692
5,ATGCACCC,-0.0626
6,AGCCCACA,-0.118
7,ACATGGAC,-0.00801
8,GGGGTATA,0.0753
9,CGGCATTC,0.00117
10,GGACAAAA,0.137
11,ACTGTCTG,-0.0281
12,AAATAGTA,0.0997
13,GTCAACAA,-0.0462
14,AGCCAGCC,-0.029
15,CCAAAACC,0.233
16,CAGATCCA,0.0637
17,CAGGTGAA,0.0581
18,CCAGCGAA,-0.0819
19,CGTGGGGC,-0.163
20,AAGCTAAT,0.0899
21,AGTTATCG,0.0444
22,CTGTGTAC,-0.126
23,ACCAACAT,0.125
24,GCCGCCTA,-0.179
25,CCGTACTC,-0.173

row,Sequence,PBM E-score
1,GGTCACCA,-0.278
2,CTATCGAG,-0.266
3,GCAGCACA,-0.124
4,GGCAGTAA,0.142
5,GCCGACAC,-0.0784
6,GAGGATTA,0.0342
7,GAACTTGC,-0.0993
8,CTTCGATA,0.0467
9,ACCCGGAG,0.0758
10,CATAAGAC,0.158
11,ATGGGTAG,-0.00405
12,TGACCGAA,0.0143
13,ACTGTAAA,0.194
14,AAACCAAA,0.255
15,CATGTACC,-0.073
16,GCCTGCCA,-0.136
17,AATGCTGT,-0.0241
18,AGGCTAAT,0.0389
19,CACGCTTA,-0.0966
20,CCCGAAAA,0.183
21,AGTGTGCC,-0.0376
22,CGGGGGTA,-0.0322
23,AACGCATT,0.118
24,ATCTTGAG,-0.0165
25,CAGGGCGA,-0.103

row,Sequence,PBM E-score
1,GGGACGAA,0.125
2,GGAGATAC,0.00973
3,CGTGACAA,0.215
4,CTTCCCGA,0.0932
5,CATCTTGA,-0.0295
6,ACTGACCG,0.0836
7,CAATGATG,0.058
8,CCCGGTGA,0.0547
9,GGATGGTA,-0.0271
10,GGACATTA,0.0628
11,ACGTAACC,0.0253
12,CGTCGCAG,0.0344
13,AGCCCAAC,-0.0608
14,AGTCATCA,-0.128
15,ATCGACTC,0.0417
16,GGTTCTGA,0.11
17,GCATGCGA,0.119
18,GCCGTGAC,0.0631
19,CGTTACGA,0.0942
20,ATAGGACG,-0.0881
21,AGCCACCT,-0.177
22,GGCTACCA,-0.221
